Experimental data as given in PubChem BioAssay AID588855 (National Center for Advancing Translational Sciences (NCATS), 2011).
“And” between values parts separate entries of the source, which are not always exact repeats. Identical values can stand only once. In all, about 410,000 compounds went through this assay and about 5,000 (1.2%) were called active. The inconclusive results got no clear call from the source; some entries with a clear call stand among them for comparison. Calls come from the whole dose curve; as a rule, active = well fitted inhibition curve with a large enough effect; inconclusive = small, poorly fitted or top-dose-only effect; inactive = no such curve, though single readings can be large or run the other way. Where the call is inconclusive, the potency comes from a doubtful curve fit.

Test: qHTS for Inhibitors of TGF-b; note: nearly all actives have a fitted effect of over 65% in size
Conditions: HepG2 CAGA-GFP TGF-b/SMAD3 reporter, GFP fluorescence, 18 h, TGF-beta stimulated, 500 pg/mL final; series mostly up to 46.1 µM; activity, negative = inhibition: at the top concentration
Method in brief: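 Smad-responsive CAGA-GFP expression was quantified in HEPG2 cells exposed to compounds and 500 pg/mL final TGF-beta for 18 h at 37 degrees C; unstimulated wells defined full inhibition.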
% is set by controls: 0 for no effect and ±100 for the full control effect; potency is the fitted concentration of half-maximal effect; tags give direction and shape of the fitted curve.

SMILES | Potency | activity, negative = inhibition
CN(C)CCN(Cc1ccco1)C(=O)c1oc2ccccc2c1NC(=O)c1ccccc1 | inconclusive: 11.2 µM [inhibitor, partial curve, poor fit] | –
COc1cc(C(=O)NCCC(c2ccccc2)c2ccccc2)cc(OC)c1OC | – | inactive: -6.5%
CC1C(=O)N(Cc2cn(CCC3OCCCO3)nn2)CCS(=O)(=O)N1Cc1ccc(-c2ccccc2)cc1 (configuration not stated) | – | inactive: -13.2%
C=CC[C@H](CC(=O)NCCO)C(=O)N[C@H](COC(=O)[C@@H](CC=C)Cc1ccc(F)cc1)c1ccccc1 | – | inactive: -4.18%
C=CCn1c(COc2ccc(Cl)cc2)nnc1SCC(=O)N/N=C/c1cccc(O)c1 | inconclusive: 10 µM [inhibitor, partial curve, poor fit] | –
COc1cc(C(=O)N2CCCC(c3cc(C(=O)NCc4ccc(F)cc4)no3)C2)cc(OC)c1C (configuration not stated) | inconclusive: 0.562 µM [inhibitor, full curve, poor fit] | –
Cc1cccc(Nc2c([N+](=O)[O-])cc(C(=O)N3CC(=O)Nc4ccccc43)cc2[N+](=O)[O-])c1 | – | inactive: -19.4%
CC(=O)c1c(N2CCN(C)CC2)[nH]c(-c2ccccc2)nc1=S | – | inactive: 22.5%
O=C(C[n+]1cc(-c2ccc(Cl)cc2)n2c1CCC2)Nc1nc(-c2ccccc2)cs1 | – | inactive: -18.4%
C[C@@H](CSc1ccc(Br)cc1)CN1CC[C@H](C(C)(C)C)CCC1=O | inconclusive: 35.5 µM [inhibitor, single point] and inconclusive: 35.5 µM [inhibitor, partial curve, poor fit] | –
CCc1ccccc1N(CC)C(=O)CCc1nc(-c2ccc(C)cc2)no1 | inconclusive: 35.5 µM [inhibitor, single point] | –
CSc1ccc(C(=O)C2CCCN(C(=O)CCc3c(C)nn(C)c3C)C2)cc1 (configuration not stated) | – | inactive: -13.5%
O=C(CC1CCCCC1)N1CCCC(c2nc(-c3ccc(S(=O)(=O)N4CCCC4)cc3)no2)C1 (configuration not stated) | inconclusive: 15.8 µM [inhibitor, single point] | –
CCN(CC)C(=O)[C@H]1C[C@H](CC(=O)NCCc2ccccn2)C(=O)N2CCc3c([nH]c4ccc(Cl)cc34)[C@]12C | inconclusive: 11.2 µM [inhibitor, partial curve, poor fit] | –
O=C(O)c1ccc(Nc2nc3ccccc3nc2NS(=O)(=O)c2cccs2)cc1 | – | inactive: 3.08%
COc1cccc(C(=O)N2CCC(n3nccc3NC(=O)C(OC)c3ccccc3)CC2)c1 (configuration not stated) | inconclusive: 0.112 µM [inhibitor, full curve, poor fit] | –
Cc1ccc(Cl)c2sc(NC(=O)C3CC3)nc12 | inconclusive: 25.1 µM [inhibitor, single point] | –
Cc1nnc(SCc2nc3sc4c(c3c(=O)[nH]2)CCCC4)[nH]c1=O | – | inactive: -5.15%
Cc1ccc(C)c(Nc2ccc3nonc3c2[N+](=O)[O-])c1 | – | inactive: -12.2%
O=C(NCCc1ccccc1)c1cc(-c2ccccc2)c(N2CCOCC2)s1 | inconclusive: 3.16 µM [inhibitor, single point] | –
COCCNC(=O)C1Cc2c(-c3ccc(NC(C)=O)cc3)ccnc2O1 (configuration not stated) | – | inactive: 54.6%

SMILES | Potency | activity, negative = inhibition
COc1ccc(OC)c(CCNC(=O)C(C)n2nc(C)c3c(C)n(-c4ccccc4)nc3c2=O)c1 (configuration not stated) | inconclusive: 35.5 µM [inhibitor, partial curve, poor fit] | –
CCN(C(=O)c1cccc(F)c1)c1ccccc1C | – | inactive: -4.82%
Nn1cnnc1N/N=C\c1ccc(-c2ccccc2[N+](=O)[O-])o1 | inconclusive: 7.08 µM [inhibitor, partial curve, poor fit] | –
CC(C)c1c(C(=O)N/N=C/c2ccc(OCc3ccc(F)cc3)cc2)nnn1-c1nonc1N | – | inactive: 3.82%
O=C(Nc1nc2ccc(Oc3ccccc3)cc2s1)c1cc([N+](=O)[O-])ccc1N1CCOCC1 | inconclusive: 0.112 µM [inhibitor, full curve, poor fit] | –
CCc1ccc(NC(=S)N(CCN2CCCCC2)Cc2ccco2)cc1 | – | inactive: -2.01%
CC(C1CC2CCC1C2)n1c(-c2ccco2)n[nH]c1=S (configuration not stated) | inconclusive: 25.1 µM [inhibitor, single point] | –
COc1ccccc1N1CCN(C(=O)N2CCOCC2)CC1 | – | inactive: 17.1%
COC(=O)c1sc(NC(=O)c2cc(-c3ccccc3)nc3ccccc23)c(C#N)c1C | active: 5.01 µM | –
COc1ccc(-c2n[nH]c(C)c2-c2ccccc2OC)c(O)c1 | inconclusive: 15.8 µM [inhibitor, single point] | –
O=C1C2C3C=CC(C4CC34)C2C(=O)N1CCCCN1CCN(c2ccc(F)cc2)CC1 (configuration not stated) | – | inactive: -8.43%
C=CCc1cccc(/C=N/NC(=O)c2ccccc2Br)c1O | inconclusive: 11.2 µM [inhibitor, partial curve, poor fit] | –
CC(C)C[C@H](NC(=O)c1[nH]cnc1C(=O)N[C@@H](C)c1ccccc1)C(=O)OCc1ccccc1 | inconclusive: 35.5 µM [inhibitor, single point] | –
CCOC(=O)c1sc(Nc2nc3ccc(OC)cc3s2)cc1C | inconclusive: 22.4 µM [inhibitor, single point] | –
CCc1nnc(NC(=O)C2=CCN(S(=O)(=O)c3ccc(F)cc3)CC2)s1 | inconclusive: 2 µM [inhibitor, partial curve, poor fit] | –
CCOC(=O)c1nnc(-c2cccs2)nc1Oc1ccc(Cl)cc1 | – | inactive: 3.04%
CC(=O)Nc1ccc(OCC(O)CN2CCN(c3ccc(F)cc3)CC2)cc1 (configuration not stated) | – | inactive: -3.45%
Cc1cc(C(=O)O[C@H]2[C@H](Cc3ccccc3)NS(=O)(=O)[C@H]3C[C@@H]4C=C[C@]23O4)ccc1[N+](=O)[O-] | inconclusive: 22.4 µM [inhibitor, single point] | –
NCCCCCCCCCCNS(=O)(=O)c1cccc2c(Cl)cccc12 | inconclusive: 25.1 µM [inhibitor, single point] | –
COc1cc(C2c3c(-c4cc(C)ccc4O)n[nH]c3C(=O)N2CCCO)ccc1OCCC(C)C (configuration not stated) | inconclusive: 25.1 µM [inhibitor, single point] | –
CCc1ccccc1Nc1cc(C(=O)NC(C)c2ccccc2)c2ccccc2n1 (configuration not stated) | inconclusive: 35.5 µM [inhibitor, single point] | –
